{"source": "PubChem BioAssay AID1454", "about": "(National Center for Advancing Translational Sciences (NCATS), 2008)", "note": "Out of some 130,000 compounds screened, about 550 (0.42%) were called active. This list was built around the results that the source calls inconclusive (neither active nor inactive); the mix of calls is not that of the screen. Calls follow the shape of the dose curve; as a rule, active = well fitted inhibition curve with a large enough effect; inconclusive = small, poorly fitted or top-dose-only effect, or effect the other way; inactive = flat fitted curve, though single readings scatter. No potency is given beside an inconclusive call; the fits are too rough. Potency is read from the fitted curve at half-maximal effect; tags tell the direction and shape of the fitted curve."}
{"assay": "qHTS Assay for Inhibitors of the ERK Signaling Pathway using a Homogeneous Screening Assay; Stimulation with EGF; also: nearly all actives have a fitted effect of over 55% in size;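 as to activity change, negative = inhibition: plate controls were stimulated vehicle wells for no effect and unstimulated vehicle basal for full effect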", "settings": "HEK293-V1b, EGF-stimulated phospho-ERK AlphaScreen; activity change, negative = inhibition: at the top concentration", "how_it_was_run": "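Stably V1b-transfected HEK293 cells; 30 min compound, then EGF 25 nM final for 5 min at 37C; 10 min lysis; phospho-ERK by AlphaScreen after 5 hr beads at room temperature.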"}
{"smiles": "CCc1cccc2c3c([nH]c12)[C@@](CC)(CC(=O)O)OCC3", "activity change, negative = inhibition": "inactive: -9.73% [at 25.7 µM]"}
{"smiles": "COc1ccc(/C=C/C(=O)Nc2cccc(S(=O)(=O)N3CCCC3)c2)cc1OC", "Potency": "inconclusive [inhibitor, single point]"}
{"smiles": "CCCC(=O)NCCc1c2n(c3ccc(OC)cc13)CCCc1ccccc1-2", "Potency": "inconclusive [inhibitor, single point]"}
{"smiles": "O=C(CN1CCCc2ccccc21)N1CCc2ccccc21", "activity change, negative = inhibition": "inactive: 4.79% [at 57.5 µM]"}
{"smiles": "CN1/C(=C\\C(=O)Nc2ccc(Br)cc2)C(C)(C)c2ccccc21", "Potency": "inconclusive [inhibitor, single point]"}
{"smiles": "CCN1CCN(CC(=O)N2N=C(c3ccc(OC)cc3)CC2c2ccc(OC)cc2)C(=O)C1=O", "note": "(stereo not drawn)", "Potency": "inconclusive [activator, full curve, poor fit]"}
{"smiles": "O=[N+]([O-])c1cncc([N+](=O)[O-])c1Nc1ccccc1Cl", "Potency": "inconclusive [inhibitor, single point]"}
{"smiles": "COC(=O)[C@@]1(Cc2ccc(OC)cc2)[C@H]2c3cc(C(=O)N(C)C)n(Cc4ccc(OC)c(OC)c4)c3C[C@H]2CN1C(=O)c1ccccc1", "activity change, negative = inhibition": "inactive: 7.8%"}
{"smiles": "Cc1cc(CNC(=O)c2cccc([N+](=O)[O-])c2C)c2ccccc2n1", "Potency": "inconclusive [inhibitor, single point]"}
{"smiles": "O=C(Nc1nnc(-c2ccccc2)o1)c1cc(-c2cccs2)nc2ccccc12", "Potency": "inconclusive [inhibitor, single point]"}
{"smiles": "O=C(c1cc2nc(-c3ccc(F)cc3)cc(C(F)(F)F)n2n1)N1CCCCC1c1cccnc1", "note": "(stereo not drawn)", "Potency": "inconclusive [inhibitor, single point]"}
{"smiles": "COc1ccc(-c2cc(C(=O)Nc3c(C)n(C)n(-c4ccccc4)c3=O)no2)cc1", "Potency": "inconclusive [inhibitor, single point]"}
{"smiles": "CCOC(=O)C1=C(N)n2c(s/c(=C\\c3ccco3)c2=O)=C(C(=O)OC(C)C)C1c1ccco1", "note": "(stereo not drawn)", "Potency": "inconclusive [inhibitor, partial curve]"}
{"smiles": "COc1cccc(-c2csc(N3CCN(C(=O)Nc4ccccc4Cl)CC3)n2)c1", "Potency": "inconclusive [inhibitor, single point]"}
{"smiles": "CCOC(=O)N/N=C/C=C/c1ccccc1[N+](=O)[O-]", "activity change, negative = inhibition": "inactive: 9.43%"}
{"smiles": "Cc1ccnc2nc(C(=O)OCCOc3ccc(Cl)cc3)nn12", "Potency": "inconclusive [activator, partial curve, poor fit]"}
{"smiles": "COc1cccc(NCc2cc(=O)oc3cc(-c4ccccc4)c(O)cc23)c1", "Potency": "active: 28.2 µM"}
{"smiles": "CCOc1ccccc1/C=C/C(=O)c1ccc(Cl)cc1", "activity change, negative = inhibition": "inactive: -8.71%"}
